Some of the results follow. Many values rest on one well or one pass, so single values are uncertain.
System: hiPSC-derived cardiomyocytes
Assay: time to death of most cells in well after compound addition (days); higher = less cardiotoxic; extreme values may be limits of the assay
Conditions: screen: 4; 10 µM

Structure (SMILES) | time to death of most cells in well
COc1cc(Nc2c(C#N)cnc3cc(OCCCN4CCN(C)CC4)c(OC)cc23)c(Cl)cc1Cl [Bosutinib (SKI-606)] | > 7
CN1CCN(c2ccc3nc(-c4c(N)c5c(F)cccc5[nH]c4=O)[nH]c3c2)CC1 [Dovitinib (TKI-258, CHIR-258)] | > 7
Cc1cn(-c2cc(NC(=O)c3ccc(C)c(Nc4nccc(-c5cccnc5)n4)c3)cc(C(F)(F)F)c2)cn1 [Nilotinib (AMN-107)] | > 7
CCOc1cc2ncc(C#N)c(Nc3ccc(F)c(Cl)c3)c2cc1NC(=O)/C=C/CN(C)C [Pelitinib (EKB-569)] | > 7
CNC(=O)CN1CCC(Oc2cc3c(Nc4cccc(Cl)c4F)ncnc3cc2OC)CC1 [Sapitinib (AZD8931)] | > 7
CS(=O)(=O)c1ccc(-c2cnc(N)c(C(=O)Nc3ccccc3)n2)cc1 | > 7
C[C@@H](Oc1cc(-n2cnc3ccc(CN4CCN(C)CC4)cc32)sc1C(N)=O)c1ccccc1C(F)(F)F | > 7
CC(C)(O)CNc1ncc(-c2ccnc(Nc3ccnc(Cl)c3)n2)c(CC2CC2)n1 | 6.5
CN(C[C@@H]1COCCO1)S(=O)(=O)Nc1ccc2ccc3ncc(-c4cnn(C)c4)cc3c(=O)c2c1 | > 7
COC(=O)Nc1ccc(-c2nc(N3CCOCC3)c3cnn(C4CCN(C(=O)OC)CC4)c3n2)cc1 | > 7
C=CC(=O)Nc1cccc(Nc2nc(Nc3ccc(OCCOC)cc3)ncc2F)c1 | > 7
CCN1C(=CC(C)=O)Sc2ccc(OC)cc21 | > 7
O=C(O)c1ccc(Nc2ncc3c(n2)-c2ccc(Cl)cc2C(c2c(F)cccc2F)=NC3)cc1 | > 7
NC(=O)c1ccc(-c2nc(-c3ccc4c(c3)OCCO4)c(-c3ccccn3)[nH]2)cc1 | > 7
O=C(/C=C/c1ccc2ccccc2n1)c1ccncc1 | 0.5
CCn1c2ccccc2c2cc(Nc3ccnc(NCCCN4CCOCC4)n3)ccc21 | 1.5
COc1cc2nccc(Oc3ccc(NC(=O)C4(C(=O)Nc5ccc(F)cc5)CC4)cc3)c2cc1OC [Cabozantinib malate (XL184)] | > 7
Nc1cccc(S(=O)(=O)N2CCCN(S(=O)(=O)c3ccc4c(c3)OCCO4)CC2)c1 | > 7
CN1CCN(S(=O)(=O)c2ccc(-c3cnc(N)c(C(=O)Nc4cccnc4)n3)cc2)CC1 | > 7

Structure (SMILES) | time to death of most cells in well
CC(C)(C)n1nc(-c2ccc(Cl)cc2)c2c(N)ncnc21 | > 7
C[C@@H](NC(=O)c1ncnc(N)c1Cl)c1ncc(C(=O)Nc2cc(C(F)(F)F)c(Cl)cn2)s1 | > 7
CNC(=O)c1ccc(C)c(-n2c(C)cc(OCc3ccc(F)cc3F)c(Br)c2=O)c1 | > 7
OCCn1cc(-c2ccc3c(c2)CC/C3=N\O)c(-c2ccncc2)n1 | > 7
CNC(=O)c1cc(COc2nnc(Nc3ccc(Cl)cc3)c3ccoc23)ccn1 [Telatinib] | > 7
CC(C)(CCCCCC(O)CCCCCC(C)(C)C(=O)O)C(=O)O | > 7
N#CC1(c2ccc(NC(=O)c3cccnc3NCc3ccncc3)cc2)CCCC1 [Apatinib] | > 7
CCN1CCN(Cc2ccc(Nc3ncc(F)c(-c4cc(F)c5nc(C)n(C(C)C)c5c4)n3)nc2)CC1 | > 7
CC(C)CC(=O)Nc1n[nH]c2c1CN(C(=O)C1CCN(C)CC1)C2(C)C | > 7
O=C(Nc1ccc(OC(F)(F)F)cc1)c1sccc1NCc1ccnc2ccccc12 | > 7
CN(C)Cc1cccc(N=C(c2ccccc2)c2c(O)[nH]c3cc(C(=O)N(C)C)ccc23)c1 | > 7
O=C(Nc1cccc(Nc2ncc(Br)c(NCCc3cnc[nH]3)n2)c1)N1CCCC1 | > 7
Cc1ccc(C(=O)Nc2cccc(C(F)(F)F)c2)cc1Nc1nc(-c2cccnc2)nc2c1cnn2C | > 7
COc1nccc(-c2c(-c3ccc(F)cc3)ncn2C2CCC(O)CC2)n1 (stereo not drawn) | > 7
CCN(CCO)CCCOc1ccc2c(Nc3cc(CC(=O)Nc4cccc(F)c4)[nH]n3)ncnc2c1 [Barasertib (AZD1152-HQPA)] | > 7
O=S(=O)(NCCNCC=Cc1ccc(Br)cc1)c1cccc2cnccc12 | > 7
CNc1nc(Nc2cn(C(C)(C)C#N)nc2C)ncc1C(F)(F)F | > 7
C=CC(=O)N1CCC[C@@H](n2nc(-c3ccc(Oc4ccccc4)cc3)c3c(N)ncnc32)C1 | > 7
N#CC(=Cc1ccc(O)c(O)c1)C(=O)NCc1ccccc1 [AG-490 (Tyrphostin B42)] | > 7

— the supplement of paper PMC6828730
